Measurements from PubChem BioAssay AID1768 (National Center for Advancing Translational Sciences (NCATS), 2009).
Hit rate of the full screen: of about 270,000 compounds, about 620 (0.23%) were called active. Inconclusive means that the source gave no clear call. Such entries were picked first, then a sample of the others. The call rests on the fitted dose curve; in most records, active means well fitted inhibition curve with a large enough effect in the polarisation, with a control signal flat (not every such curve was filed as active); inconclusive means small, poorly fitted or top-dose-only effect, or effect the other way, or a change in a side signal; inactive means no such curve, though single readings can be large or run the other way; the % refers to the polarisation. Potencies of inconclusive entries are doubtful fits and often do not repeat. “Side channel” marks fits to a control or component signal instead of the main read-out.

What follows are compounds tested against Menin (Homo sapiens) (UniProt O00255) (assay: qHTS Assay for Inhibitors Targeting the Menin-MLL Interaction in MLL Related Leukemias: Competition With Texas Red Labeled MLL-derived Mutant Peptide). Settings: fluorescence polarization; FP activity change, negative = inhibition: at 61.6 µM (top of the series).
Potency means the concentration at half of the fitted maximal effect; tags describe the fitted curve by direction and shape or compound fluorescence and quenching.
Wherever FP activity change, negative = inhibition is given: % of control where 0% means no effect.

Sequence of UniProt O00255 (O00255 whole entry, looked up): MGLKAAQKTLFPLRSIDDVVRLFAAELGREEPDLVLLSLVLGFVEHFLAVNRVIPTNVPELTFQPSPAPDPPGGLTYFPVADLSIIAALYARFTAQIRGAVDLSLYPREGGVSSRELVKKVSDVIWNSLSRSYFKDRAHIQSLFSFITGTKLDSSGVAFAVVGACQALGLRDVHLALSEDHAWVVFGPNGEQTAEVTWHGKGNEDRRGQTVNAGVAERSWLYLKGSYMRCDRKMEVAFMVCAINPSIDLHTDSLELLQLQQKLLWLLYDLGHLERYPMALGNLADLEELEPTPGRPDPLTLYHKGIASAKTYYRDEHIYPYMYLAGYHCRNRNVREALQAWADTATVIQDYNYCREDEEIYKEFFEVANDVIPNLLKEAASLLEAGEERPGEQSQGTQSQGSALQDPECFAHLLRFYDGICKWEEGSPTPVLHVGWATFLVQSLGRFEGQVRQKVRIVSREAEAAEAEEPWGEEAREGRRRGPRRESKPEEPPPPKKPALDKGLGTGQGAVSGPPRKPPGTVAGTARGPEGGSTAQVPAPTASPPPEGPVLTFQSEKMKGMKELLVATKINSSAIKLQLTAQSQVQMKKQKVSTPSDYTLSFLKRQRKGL

| SMILES | Potency | FP activity change, negative = inhibition |
| --- | --- | --- |
| COc1ccc(NC(=O)c2cc(C(C)C)on2)cc1OC | inconclusive: 3.16 µM [inhibitor, single point] |  |
| NC(=S)n1[nH]c(-c2ccc([N+](=O)[O-])cc2)c(N=Nc2cccc(Cl)c2)c1=O | inconclusive: 8.91 µM [quencher, side channel, partial curve] |  |
| CSc1nsc(SCC(=O)Nc2ccc(Br)cn2)n1 | inconclusive: 22.4 µM [quencher, side channel, partial curve] |  |
| Cc1ccc(N2C(=O)C3C4C=CC(CNC(=S)Nc5cccc(Cl)c5)(O4)C3C2=O)cc1 (stereo unspecified) | inconclusive: 17.8 µM [quencher, side channel, partial curve] |  |
| Cc1ccc(-c2cc(C(=O)N/N=C/c3c[nH]c4ccccc34)n[nH]2)o1 | inconclusive: 17.8 µM [quencher, side channel, partial curve] |  |
| Cc1cc(N2CCC(C)CC2)nc(NCc2ccccc2)n1 | inconclusive: 5.01 µM [fluorescent, side channel, partial curve] |  |
| COc1cc(/C=N/NC(=O)CCC(=O)NCc2ccccc2)cc(OC)c1OC |  | inactive: 6.19% |
| COc1cccc(CNC(=O)C2CCN(S(=O)(=O)c3cccc4nonc34)CC2)c1 | inconclusive: 39.8 µM [fluorescent, single point] |  |
| COc1ccc(CCNC(=O)c2cccc(NC3=NC4CS(=O)(=O)CC4S3)c2)c(OC)c1 (stereo unspecified) | inconclusive: 56.2 µM [inhibitor, partial curve, poor fit] |  |
| O=C(NCCc1ccccc1F)C1CCCN(c2nc3ccccc3s2)C1 (stereo unspecified) | inconclusive: 7.08 µM [inhibitor, partial curve] |  |
| Oc1ccc2ccccc2c1CNc1ccc(Br)cn1 | inconclusive: 11.2 µM [quencher, side channel, partial curve] |  |
| C=CCn1c(O)c(N=NC(=O)CNC(=O)Cc2ccccc2)c2ccccc21 | inconclusive: 0.794 µM [inhibitor, full curve, poor fit] |  |
| Cc1n[nH]c(C)c1CCc1nc2c3ccccc3nc(SCC(=O)Nc3ccccc3F)n2n1 | inconclusive: 0.631 µM [fluorescent, side channel, full curve, poor fit] |  |
| CCn1c(=O)cc(OCC(=O)N2CCN(c3cccc(C(F)(F)F)c3)CC2)c2ccccc21 | inconclusive: 3.55 µM [fluorescent, side channel, full curve, poor fit] |  |
| CC(NC(=O)C(=O)NN=C1CCCCCCC1)c1ccccc1 (stereo unspecified) | inconclusive: 28.2 µM [inhibitor, single point] |  |
| CCOC(=O)c1c(C)n(-c2ccccc2)c2ccc(OCCN(C)C)cc12 | inconclusive: 11.2 µM [inhibitor, partial curve] |  |
| COc1ccc(C(=O)Cn2cnc3ccccc3c2=O)cc1 |  | inactive: 10.4% |
| O=C(Nc1ccc(COc2ccccc2)cc1)Nc1cccc(C(=O)O)c1 | inconclusive: 17.8 µM [quencher, side channel, single point] |  |
| Cc1ccc(C)c(N=Cc2cc3c(cc2[N+](=O)[O-])OCO3)c1 | inconclusive: 14.1 µM [quencher, side channel, partial curve] |  |

| SMILES | Potency | FP activity change, negative = inhibition |
| --- | --- | --- |
| O=C(CN1CCCCCC1)N1c2ccccc2Sc2ccc(C(F)(F)F)cc21 | inconclusive: 8.91 µM [inhibitor, partial curve] |  |
| Cc1cc(-c2ccccc2)nc(N/N=C/c2ccc([N+](=O)[O-])cc2)n1 | inconclusive: 20 µM [quencher, side channel, partial curve] |  |
| O=C(CSc1nnnn1C1CCCCC1)NNC(=O)c1ccco1 | inconclusive: 39.8 µM [inhibitor, partial curve, poor fit] |  |
| CC(=O)c1cccc(NC(=O)N2CCCc3ccccc32)c1 | inconclusive: 28.2 µM [inhibitor, single point] |  |
| COc1ccc(C)cc1N(CC(=O)N1CCCC1)S(=O)(=O)c1ccccc1 | inconclusive: 31.6 µM [inhibitor, partial curve] |  |
| O=C(NC1=C(Nc2ccc(Cl)cc2)C(=O)c2ccccc2C1=O)c1ccccc1 |  | inactive: -17.5% |
| CCOc1ccccc1NC(=O)COC(=O)Cc1cccs1 |  | inactive: 10.5% |
| CC(C)C(OC(=O)c1cc2c(s1)CCCCC2)C(=O)NC(N)=O (stereo unspecified) | inconclusive: 39.8 µM [fluorescent, side channel, single point] |  |
| c1ccc(Cn2c(CNc3nc4ccccc4n3CCN3CCCCC3)nc3ccccc32)cc1 | inconclusive: 15.8 µM [fluorescent, side channel, partial curve] |  |
| Cc1ccc(CNC(=O)C2CC(c3ccccc3[N+](=O)[O-])=NO2)cc1 (stereo unspecified) | inconclusive: 3.16 µM [inhibitor, partial curve] |  |
| O=C(CCN1C(=O)/C(=C/c2ccccc2Cl)SC1=S)N1CCCC1 |  | inactive: -21.3% |
| O=C(c1ccc(F)cc1)[C@@H]1[C@@H](C(=O)c2ccccc2)[C@@]2(C(=O)Nc3ccccc32)[C@H]2c3ccccc3C=CN12 | inconclusive: 28.2 µM [quencher, side channel, single point] |  |
| Cc1ccc(-c2csc(NC(=O)c3ccc(F)cc3)c2C(=O)O)cc1 | inconclusive: 12.6 µM [quencher, side channel, partial curve] |  |
| COc1ccc(CN2CCNC(=O)C2CC(=O)NCC2CCOCC2)c(C)c1C (stereo unspecified) | inconclusive: 3.16 µM [fluorescent, side channel, partial curve] |  |
| COc1ccc(CNc2nc3c(c(=O)n(Cc4ccc(Cl)cc4)c(=O)n3C)n2C)cc1 | inconclusive: 7.94 µM [quencher, side channel, full curve] |  |
| CC1=C/C(=C\c2ccc(Br)o2)C(=O)O1 |  | inactive: 17% |
| Cc1ccc2oc(=O)c3c4cc(O)c(O)c(C)c4oc3c2c1 | inconclusive: 14.1 µM [quencher, side channel, partial curve] |  |
| O=C(Oc1ccc(-c2cn3c(n2)SCC3)cc1)c1ccccc1 | inconclusive: 39.8 µM [inhibitor, single point] |  |
| Cc1ccc(-n2cccn2)c(CN2CCCC(C(=O)c3sccc3C)C2)c1 (stereo unspecified) | inconclusive: 10 µM [fluorescent, side channel, full curve, poor fit] |  |

| SMILES | Potency | FP activity change, negative = inhibition |
| --- | --- | --- |
| O=C(Nc1nc2ccc(F)cc2s1)C1CCN(S(=O)(=O)c2cc([N+](=O)[O-])ccc2Cl)CC1 | inconclusive: 8.91 µM [quencher, side channel, full curve] |  |
| Cc1cc2c(ncn2Cc2ccccc2)c([N+](=O)[O-])c1C | inconclusive: 3.16 µM [inhibitor, partial curve] |  |
| Cc1ccc(S(=O)(=O)n2nc(OC(=O)c3cccs3)cc2N)cc1 | inconclusive: 17.8 µM [quencher, side channel, partial curve, poor fit] |  |
| CCN(C(=O)Cc1c(C(=O)O)n(CC)c2ccccc12)c1cccc(C(F)(F)F)c1 | inconclusive: 25.1 µM [fluorescent, side channel, partial curve] |  |
| CC1=C(C)C(=O)C(CCCCC#CCCCC#CCO)=C(C)C1=O | inconclusive: 7.94 µM [fluorescent, side channel, partial curve] |  |
| Cc1ccc(NCC(=O)N/N=C/c2ccc(-c3cccc(C(F)(F)F)c3)o2)cc1 | inconclusive: 39.8 µM [quencher, side channel, single point] |  |
| Cc1ccccc1NP(=O)(c1ccccc1)c1nc2ccccc2s1 (stereo unspecified) | inconclusive: 14.1 µM [fluorescent, side channel, partial curve] |  |
| O=C1NC(=Nc2ccccc2)S/C1=C\c1ccccc1 | inconclusive: 31.6 µM [inhibitor, single point] |  |
| O=C(CCC(=O)OCc1ccc(Cl)cc1)Nc1cccc([N+](=O)[O-])c1 | inconclusive: 22.4 µM [quencher, side channel, single point] |  |
| Cc1ccc(O)c(-c2cc(C(=O)Nc3ccc(S(=O)(=O)Nc4nc(C)cc(C)n4)cc3)[nH]n2)c1 | inconclusive: 12.6 µM [quencher, side channel, partial curve] |  |
| O=C(CC1S/C(=N/N=C/c2c[nH]c3ccc(OCc4ccccc4)cc23)NC1=O)Nc1ccccc1 (stereo unspecified) | inconclusive: 3.98 µM [quencher, side channel, partial curve] |  |
| COc1ccc(-c2csc(NC(=O)c3ccccc3F)c2C(=O)O)cc1 | inconclusive: 14.1 µM [quencher, single point] |  |
| Nc1ccccc1Nc1cc(-c2cccc(Cl)c2)nn1-c1ccccc1 | inconclusive: 14.1 µM [quencher, side channel, partial curve] |  |
| CCOc1ccc(N(C(=O)c2snc(C(N)=O)c2N)C(CC)C(=O)NC2CCCC2)cc1 (stereo unspecified) | inconclusive: 31.6 µM [fluorescent, side channel, partial curve] |  |
| O=C(CSc1ccccn1)Nc1nc2c(ccc3ccccc32)s1 | inconclusive: 31.6 µM [quencher, side channel, single point] |  |
| O=C(CSc1nc2ccccc2c(=O)n1NC(=O)c1ccccc1)c1ccc(Cl)cc1 | inconclusive: 31.6 µM [inhibitor, single point] |  |
| O=C(O)c1ccc(CN2C(=O)CSC2=S)cc1 | inconclusive: 15.8 µM [fluorescent, side channel, partial curve] |  |
| CCOc1ccc(CCNC(=O)COC(=O)c2nc3nc(C)cc(C)n3n2)cc1OCC | inconclusive: 14.1 µM [inhibitor, partial curve] |  |
